Experimental data: PubChem BioAssay AID588342 (National Center for Advancing Translational Sciences (NCATS), 2011)
Screen size: about 360,000 compounds; about 25,000 (6.9%) were called active. Inconclusive means that the source gave no clear call. Such entries were picked first, then a sample of the others. The call rests on the fitted dose curve; in most records, active means well fitted inhibition curve with a large enough effect; inconclusive means small, poorly fitted or top-dose-only effect; inactive means flat fitted curve, though single readings scatter. Potencies beside an inconclusive call are fits to weak or partial responses and may not hold up.

molecular target: Luciferin 4-monooxygenase (Photinus pyralis) (UniProt P08659); experiment: qHTS profiling assay for firefly luciferase inhibitor/activator using purifed enzyme and Km concentrations of substrates (counterscreen for miR-21 project); conditions: purified FLuc, luminescence inhibition; series mostly up to 57.5 µM; further: nearly all actives have a fitted effect of over 55% in size
Chain of UniProt P08659 (P08659 whole entry, looked up): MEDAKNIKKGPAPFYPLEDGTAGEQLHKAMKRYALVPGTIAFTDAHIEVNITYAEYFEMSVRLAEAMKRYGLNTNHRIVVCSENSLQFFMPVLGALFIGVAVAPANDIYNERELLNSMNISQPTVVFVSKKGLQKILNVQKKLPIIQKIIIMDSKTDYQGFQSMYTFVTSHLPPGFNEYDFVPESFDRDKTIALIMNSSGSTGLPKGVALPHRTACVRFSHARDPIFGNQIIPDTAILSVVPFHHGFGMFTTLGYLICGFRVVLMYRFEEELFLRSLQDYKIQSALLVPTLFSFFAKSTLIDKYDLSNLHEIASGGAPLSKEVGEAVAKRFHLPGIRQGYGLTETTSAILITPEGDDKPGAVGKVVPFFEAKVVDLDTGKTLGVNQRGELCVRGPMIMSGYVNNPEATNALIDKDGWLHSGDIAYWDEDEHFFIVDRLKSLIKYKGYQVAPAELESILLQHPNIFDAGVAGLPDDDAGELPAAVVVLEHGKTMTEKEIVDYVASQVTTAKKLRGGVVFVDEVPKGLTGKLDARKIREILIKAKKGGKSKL
Procedure, shortened: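 Purified P. pyralis luciferase (10nM final) with 10uM D-luciferin and 10uM ATP (Km levels) in 50mM Tris acetate pH 7.5, 10mM Mg acetate, 0.01% Tween-20, 0.05% BSA; qHTS 6-point titration, ~60 µM downward; luminescence read.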
Potency means the concentration at half of the fitted maximal effect; tags describe the fitted curve by direction and shape.

SMILES	Potency
O=C(COc1ccccc1)N1CCc2ccccc2C1	inconclusive: 37.9 µM [inhibitor, partial curve, poor fit]
CCOC(=O)Cc1csc(NC(=O)Nc2ccc(C)cc2)n1	active: 3.01 µM
Cc1cc(NC(=O)Nc2ccc(C)c(C)c2)no1	active: 13.5 µM
COc1ccccc1N1CCN(/N=C/c2ccc(Cl)c([N+](=O)[O-])c2)CC1	active: 15.1 µM
CN(C(=O)CSc1nc2ccc(NC(=O)c3ccco3)cc2s1)c1ccccc1	inconclusive: 37.9 µM [inhibitor, partial curve, poor fit]
Clc1ccc(Oc2nc(N3CCOCC3)nc(N3CCOCC3)n2)cc1	inactive
Cc1ccc(S(=O)(=O)NCC(=O)NCC(=O)OCc2c(F)cccc2Cl)cc1	inconclusive: 26.9 µM [inhibitor, partial curve]
Cc1ccccc1Nc1nc(CSc2nnnn2-c2ccccc2)cs1	inconclusive: 23.9 µM [inhibitor, partial curve, poor fit]
CC1CCC(=O)N(CCOc2ccccc2)CC1 (configuration not stated)	inconclusive: 30.1 µM [inhibitor, partial curve, poor fit]
COc1ccc(-c2cc3cccc(OC)c3oc2=O)cc1	active: 0.601 µM
CC1CCC2C(C1)Nc1c(C(=O)O)cccc1C2(C)C (configuration not stated)	inconclusive: 21.3 µM [inhibitor, single point]
Cc1ccccc1C(=O)Nc1nnc(SCC(=O)NC2CC2)s1	active: 8.49 µM
CC(C)Sc1nnc(Nc2ccccc2)s1	active: 15.1 µM
N#CC(C#N)=C1C=CC=CN1/C(=C\c1ccco1)C(=O)c1ccc(Cl)cc1	inconclusive: 13.5 µM [inhibitor, partial curve, poor fit]
CCc1sc(C(=O)Nc2cccc(-n3cnnn3)c2)cc1C	inconclusive: 6.75 µM [inhibitor, partial curve]
O=c1c2ccccc2oc2ccc(NCCCn3ccnc3)cc12	active: 1.69 µM
Cc1nnc(Nc2ccc(Cl)cc2)s1	inconclusive: 26.9 µM [inhibitor, single point]
O=C(Cc1cccs1)NCc1cccc(Cl)c1	inconclusive: 13.5 µM [inhibitor, partial curve, poor fit]
CCOc1ccccc1Nc1nc(-c2sc(NC(=O)c3ccccc3)nc2C)cs1	inconclusive: 10.7 µM [inhibitor, partial curve, poor fit]
CC(C)(C)C1CCc2onc(C(=O)Nc3cccc(O)c3)c2C1 (configuration not stated)	inconclusive: 7.57 µM [inhibitor, partial curve, poor fit]
Cc1ccc2nc(Cl)c(C3CC(c4cccs4)=NN3C(=O)CCC(=O)O)cc2c1 (configuration not stated)	inconclusive: 26.9 µM [inhibitor, partial curve, poor fit]
COc1ccc([C@@]2(O)c3c(ccc(CC=C(C)C)c3O)NC(=O)[C@@H]2OC)cc1	inactive
O=C(Nc1ccc(Cl)cc1)c1cccs1	active: 12 µM
CCc1ccc(C2=CC(c3cccc(OC)c3OC)n3c(nc4ccccc43)N2)cc1 (configuration not stated)	active: 4.26 µM

SMILES	Potency
CC1(C)CC(=O)c2sc(NS(=O)(=O)Cc3ccccc3)nc2C1	inconclusive: 30.1 µM [inhibitor, single point]
Cc1ccc(-c2cn3cccnc3n2)cc1NC(=O)c1c(-c2ccccc2Cl)noc1C	inconclusive: 30.1 µM [inhibitor, partial curve, poor fit]
COc1ccc(Cl)cc1/C=C1/C(=O)ON=C1C	inconclusive: 23.9 µM [inhibitor, partial curve, poor fit]
Nc1c(-c2cccs2)cnn1-c1nc(-c2ccc(Cl)cc2Cl)cs1	inconclusive: 10.7 µM [inhibitor, partial curve]
O=C(O)c1ccc(N=Nc2c(O)[nH]c3ccc(Br)cc23)cc1	active: 10.7 µM
CCOC(=O)c1ccc(NC(=O)CSc2nnc(CNC(=O)c3ccco3)o2)cc1	inactive
COc1ccc(-c2nc(-c3ccccc3)c(-c3cccs3)[nH]2)cc1OC	inconclusive: 30.1 µM [inhibitor, partial curve, poor fit]
O=C(NN1CCOCC1)c1ccc(Cl)c([N+](=O)[O-])c1	inactive
N#CCCN1CCN(C(=S)c2ccc(-c3ccc(Cl)c(Cl)c3)o2)CC1	active: 15.1 µM
N#Cc1nc(-c2cccs2)oc1N1CCN(Cc2ccccc2)CC1	inconclusive: 37.9 µM [inhibitor, single point]
Cc1ccc(N2CCN(S(=O)(=O)c3nnc(NC(=O)c4cccc(F)c4)s3)CC2)cc1	inactive
Cc1cc(=O)[nH]c(N/N=C/c2ccc(Br)s2)n1	inconclusive: 37.9 µM [inhibitor, single point]
COc1ccc2c(c1)cc(C)c1nnc(SCC(=O)N(C)c3nc(-c4ccccc4)cs3)n12	inactive
C[C@H](NC(=O)c1ccc2ccccc2c1)C(=O)N1CCC2(CC1)NCCc1[nH]cnc12	inactive
Cc1ccc2nc(N3C(=O)C(O)=C(C(=O)c4ccco4)C3c3ccc(O)cc3)sc2c1 (configuration not stated)	inconclusive: 23.9 µM [inhibitor, partial curve, poor fit]
CCC(CC)C(=O)Nc1cccc(-c2cn3cccnc3n2)c1	inactive
S=c1[nH]nc(COc2ccc(Cl)cc2)n1Cc1ccco1	inconclusive: 37.9 µM [inhibitor, single point]
CCOc1ccc(-c2cc(C(=O)NCCCn3ccnc3)c3ccccc3n2)cc1	active: 6.01 µM
Cc1ccc(C)c(OCCCC(=O)N2CCOCC2)c1	inconclusive: 33.8 µM [inhibitor, partial curve, poor fit]
COc1cc(NC(=O)c2cc(-c3ccccc3Cl)on2)cc(OC)c1OC	inconclusive: 19 µM [inhibitor, partial curve]
Cc1ccc(-n2ncc3c(NCCc4ccccc4)ncnc32)cc1Cl	inconclusive: 15.1 µM [inhibitor, partial curve]
CN(Cc1ccccc1)S(=O)(=O)c1ccc2[nH]cc(C(=O)NCC3CCCO3)c(=O)c2c1 (configuration not stated)	active: 10.7 µM
Cc1ccc2nsnc2c1S(=O)(=O)N(Cc1cc2cccc(C)c2[nH]c1=O)CC1CCCO1 (configuration not stated)	inactive
C/C(Cc1ccccc1)=N\NC(=O)CNC(=O)c1ccc(Cl)cc1Cl	inconclusive: 21.3 µM [inhibitor, single point]

SMILES	Potency
O=C1NN(c2ccccc2)C(=O)/C1=C\c1ccccc1	active: 16.9 µM
Cc1cccc(Nc2n[nH]c(=S)s2)c1C	inconclusive: 26.9 µM [inhibitor, single point]
COc1ccc2sc(N3C(=O)CC(Cc4cccc(C)c4)C3=O)nc2c1 (configuration not stated)	inconclusive: 15.1 µM [inhibitor, partial curve]
O=C(Nc1ccccc1Cl)c1cccc(COc2cc(Cl)ccc2Cl)c1	inconclusive: 23.9 µM [inhibitor, single point]
COc1ccc2c(c1)nc(SCC(O)c1ccccc1)n2C (configuration not stated)	inconclusive: 21.3 µM [inhibitor, partial curve, poor fit]
Nc1scc2c(C(=O)N/N=C/c3ccc(Cl)cc3)nn(-c3ccccc3)c(=O)c12	inconclusive: 9.53 µM [inhibitor, partial curve, poor fit]
O=C(O)CN1C(=O)/C(=C\c2ccccc2OCc2ccc(Cl)cc2Cl)SC1=S	inconclusive: 26.9 µM [inhibitor, single point]
COc1cc(/C=C2\SC(=Nc3ccccc3OC)NC2=O)ccc1O	inconclusive: 23.9 µM [inhibitor, partial curve]
O=C1/C(=C\c2ccc(Br)cc2)SC(=S)N1NS(=O)(=O)c1ccccc1	inconclusive: 30.1 µM [inhibitor, partial curve, poor fit]
CC1CN(C(=O)CCC(=O)NC2CCCCC2)c2ccccc2S1 (configuration not stated)	inactive
Cc1cc(C#N)c(C)n1-c1cc(S(=O)(=O)N2CCOCC2)ccc1N1CCCC1	inconclusive: 37.9 µM [inhibitor, partial curve, poor fit]
Cc1ccc(C(=O)NC(=S)NCc2ccccc2)cc1	inconclusive: 19 µM [inhibitor, partial curve, poor fit]
CCc1ccc(NC(=O)Nc2ccsc2C(=O)OC)cc1	active: 0.338 µM
CCOC(=O)C1=C(CN2CCN(c3ccc(Cl)cc3)CC2)NC(=O)NC1c1ccc(F)cc1 (configuration not stated)	inactive
CCCC(=O)Nc1ccc(NC(=O)c2ccccc2F)cn1	inconclusive: 37.9 µM [inhibitor, partial curve, poor fit]
NS(=O)(=O)c1ccc(CCNC(=O)Cn2c(=O)c3cccn3c3ccc(F)cc32)cc1	inactive
Cc1cc2ccccn2c1C(=O)c1ccccc1F	inconclusive: 37.9 µM [inhibitor, single point]
CCn1c(CC(=O)Nc2ccc(F)cc2)nnc1SCC(=O)Nc1nncs1	inactive
CC(C)(C)c1ccc(S(=O)(=O)NCC(=O)Nc2ccc(-c3nc4ccccc4s3)cc2)cc1	inconclusive: 13.5 µM [inhibitor, partial curve]
Cc1ccc(OCC(O)Cn2c3ccccc3c3ccccc32)cc1 (configuration not stated)	inactive
CCN(CC)C(=O)CSc1nc2ccccc2o1	inconclusive: 33.8 µM [inhibitor, single point]
Cc1nn2c(=O)cc(COC(=O)c3ccccc3NC(=O)C3CCCCC3)nc2s1	inactive
COc1ccc(Nc2nnc(SCC(=O)NC3CCS(=O)(=O)C3)s2)cc1 (configuration not stated)	active: 5.36 µM
O=C(Nc1nnc(-c2ccc3c(c2)CCCC3)o1)C1COc2ccccc2O1 (configuration not stated)	inconclusive: 23.9 µM [inhibitor, single point]
